Results taken from PubChem BioAssay AID1963576 (National Center for Advancing Translational Sciences (NCATS), 2024).
About 60 (0.1%) of roughly 46,000 compounds were called active. Not shown: some 3% with an inconclusive outcome. The call rests on the fitted dose curve; in most records, active means well fitted inhibition curve with a large enough effect; inconclusive means small, poorly fitted or top-dose-only effect; inactive means no such curve, though single readings can be large or run the other way. Some of the results follow.

experiment: Primary qHTS assay for Inhibitors of ovarian cancer metastasis using an organotypic tumor microenvironment (TME) model.; further: nearly all actives have a fitted effect of over 65% in size;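 on activity change, negative = inhibition: plate controls were DMSO wells for no effect and tomatine positive control wells for full effect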; settings: SKOV3ip1-GFP adhesion/invasion on 3D omental model, fluorescence; series mostly up to 45.8 µM; activity change, negative = inhibition: at the top concentration
Summary of the method: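 qHTS, 4-pt dose (0.36-46 umol/L); SKOV3ip1-GFP, 1,200 cells/well, no FBS; primary omental fibroblast/mesothelial co-culture 48 h pre-grown; 2 h RT + 16 h 37 C; PBS wash, 4% PFA; GFP count 488/509 nm.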

outcome, inactive:
COc1ccccc1NC(=O)c1cc2c(=O)oc3ccc(C)cc3c2s1
CCOC(=O)c1ccc(N2CCN(c3cc(C)ccc3C)CC2)c(NC(=O)Nc2ccccc2)c1
COc1ccc(CNC(=O)c2ccc3c(c2)nc2n3CCC(C)C2)c(OC)c1 (stereo not given)
COCCNC(=O)CSc1nc2cc3c(cc2c(=O)n1CCCCCC(=O)NCc1ccc(OC)cc1)OCO3
Cn1nc(-c2ccc(C(=O)Nc3ccc(F)cc3)cc2)c2ccccc2c1=O
COCCCNC(=O)CCCCn1c(=O)c2ccccc2n(CC(=O)Nc2ccc(C)cc2C)c1=O
COc1ccc(Br)cc1C(=O)Nc1nc2ccc(F)cc2s1
Cc1cc(Nc2cccc(Cl)c2)nc2ccc(NC(=O)c3cccnc3)cc12
CCSc1ncc(Cl)c(C(=O)Nc2ccc(S(=O)(=O)N(C)c3ccccc3)cc2)n1
Cc1ccc(NC(=O)CSc2nc3n[nH]c(C)c3c(=N)n2-c2cccc(C)c2)cc1
CCOC(=O)N1CCc2c(sc3c2c(=O)n(CCc2ccccc2)c(=O)n3Cc2c(F)cccc2Cl)C1
O=C(NCCc1ccccc1)c1cnn(-c2ccc(F)cc2)c1-n1cccc1
CCc1ccc(CNC(=O)CN2CCSc3ccccc32)cc1
Nc1c(C(=O)Nc2ccccc2)nnn1Cc1ccc(F)cc1Cl
O=C(O)CCn1cnc2onc(-c3cc(F)cc(F)c3)c2c1=O
Cn1cc(C(=O)N2CCN(c3cccc(C(F)(F)F)c3)CC2)c2c3ccccc3n(C)c2c1=O
CCOc1ccc(OCC)c(NS(=O)(=O)c2c(C(=O)N3CCC(C)CC3)c(C)n(C)c2C)c1
COc1ccc(NC(=O)CN(c2ccc(C)cc2)S(=O)(=O)c2cccc3nonc23)cc1OC
CCOc1ccc(NC(=O)CN(c2ccc(Cl)cc2C)S(=O)(=O)c2ccccc2)cc1
O=C(Nc1ccc(OCc2cc(=O)n3c4c(sc3n2)CCCC4)cc1)c1ccccc1
CC(C)n1cnc(S(=O)(=O)N2CCCC(C(=O)NCc3ccccc3Cl)C2)c1 (stereo not given)

Activity change, negative = inhibition, inactive:
COc1ccc(Nc2ncc3c(n2)CCN(Cc2cc(Br)cs2)C3)c(OC)c1 -1.34%
CCOc1ccccc1NC(=O)Cn1nnc2sc(-c3ccccc3)cc2c1=O 0.319%
CC(C)c1ccc(S(=O)(=O)NCc2ccc3c(c2)CCN3C(=O)c2ccccc2)cc1 5.09%
Cc1cccn2c(=O)c3cc(C#N)c(=O)n(-c4nnc(SCc5ccccc5F)s4)c3nc12 19.9%
COc1ccc2cc(-c3nc4ccc(C(=O)O)cc4[nH]3)c(=O)oc2c1 0.98%
C=Cc1ccc(Cn2nc(-c3ccc(C)c(S(=O)(=O)N(CC)CC)c3)ccc2=O)cc1 19%
CCc1ccccc1NC(=O)Nc1cc(C(=O)NCc2ccc(C)cc2)ccc1N1CCCC1 -1.34%
CCOc1ccccc1NC(=O)c1c(NC(=O)c2cccc(C)c2)sc2c1CCCC2 -18.6%
CC(C(=O)NCc1ccccc1F)n1ccc2cc(S(=O)(=O)N3CCCC3)ccc21 (stereo not given) 11.3%
O=c1c(S(=O)(=O)c2ccccc2)cn(Cc2ccccc2)c2cc(N3CCOCC3)c(F)cc12 3.35%
CC1CN(C(=O)Nc2ccc(C(=O)NCc3cccc(F)c3)cc2)c2ccccc2S1 (stereo not given) -12.7%
O=C(Nc1ccccc1Cl)N1CCC(CN2CCCCC2)CC1 4.14%
O=C(Nc1ccc(C(F)(F)F)cc1)C1CCCN(c2cnccn2)C1 (stereo not given) -4.69%
CCOC(=O)c1ccccc1NC(=O)N(C)CCc1c(C)nn(CC)c1C -2.69%
Cc1cc(C)cc(Oc2nc3c(c(=O)n(C)c(=O)n3C)n2Cc2ccc(F)cc2)c1 3.27%
CCc1nnc(SCC(=O)Nc2ccc(F)cc2F)c2cc3sc(C)cc3n12 -6.71%
COc1cc(C(=O)Nc2ccc3oc(-c4ccc(C)c(Br)c4)nc3c2)cc(OC)c1OC -1.04%
COc1ccc(N2CCN(c3oc(/C=C/c4cc(OC)c(OC)c(OC)c4)nc3C#N)CC2)cc1 -8.01%
COc1ccc(Nc2cc(C(=O)NCc3ccccc3OC)c3ccccc3n2)cc1 8.02%
Cc1cc(OCC(=O)N(Cc2sccc2C)C2CCS(=O)(=O)C2)ccc1Cl (stereo not given) 1.51%
CCc1cccc(C)c1NC(=O)CSc1nnc(CC)n2c1cc1occc12 0.0584%
COc1ccc(CNC(=O)CN2C(=O)c3cccnc3Oc3ccc(C)cc32)cc1 2.51%
Cc1cc(C)c2c(CC(=O)Nc3c(C(=O)Nc4ccc(Cl)cc4)oc4ccccc34)coc2c1 -13.4%
CCCSCCCNC(=O)c1ccc2nc(Cc3ccccc3)oc2c1 4.59%
O=C(CN1C(=O)COc2ccc(S(=O)(=O)N3CCCCCC3)cc21)NCc1ccc(F)cc1 -24.5%
Cc1ccc(NC(=O)C(=O)NCC2(c3ccccc3)CCCC2)cc1Cl 0.713%
Cn1c(=O)oc2cc(S(=O)(=O)Nc3ccc(C(=O)O)cc3)ccc21 -9.92%
CCC(=O)N1CCc2cc(S(=O)(=O)NC(C(=O)Nc3ccc(C(C)=O)cc3)C(C)C)ccc21 (stereo not given) -1.96%
Cc1cc(C)c2c(CC(=O)N(Cc3ccccc3)C3CCS(=O)(=O)C3)coc2c1 (stereo not given) -9.27%
Cc1cc(C)cc(OCC(=O)Nc2ccc(-c3nc4ccccc4o3)cc2)c1 0.159%
COc1ccc(NC(=O)c2cccn2-c2nnc(N3CCCCC3)s2)cc1 7.36%
Cc1ccc(OCC(=O)Nc2ccc3nc(SCC(=O)N4CCc5ccccc54)sc3c2)cc1 -5.05%
COc1ccccc1CNC(=O)c1ccc(-c2nc(CN3CCc4ccccc43)c(C)o2)cc1 4.66%
Cc1ccc(Cl)cc1N1CCN(c2ncnc3onc(C)c23)CC1 20.9%
CCn1c(=O)c2sccc2n2c(CCC(=O)Nc3cc(C)cc(C)c3)nnc12 6.71%
CCOC(=O)C1CCCN(c2nc3c(S(=O)(=O)c4ccc(C)c(C)c4)nnn3c3ccc(Cl)cc23)C1 (stereo not given) -2.01%
Cn1cnc(=N)c2[nH]cnc21 -10.9%
COc1cccc(C(=O)Nc2cc3c(cc2C(=O)c2ccc(C)cc2)OCCO3)c1 3.06%
COc1cccc(N2CCN(C(=O)C3CCN(S(=O)(=O)c4ccc5c(c4)oc(=O)n5C)CC3)CC2)c1 -5.23%
COc1ccc2c(c1)CC(C(=O)NCCCN1CCN(c3ccc(F)cc3)CC1)CO2 (stereo not given) 4.3%
COc1ccc(-c2nc(CS(=O)CC(=O)NCc3ccccc3OC)c(C)o2)cc1 (stereo not given) -1.94%
Clc1ccc(N2CCN(c3ncnc4c3nc3n4CCCC3)CC2)cc1 0.851%
Cc1ccc(CNS(=O)(=O)c2ccc(-c3cc(C(F)(F)F)on3)s2)cc1 2.9%
COc1ccc(Cl)cc1NC(=O)Cn1c(=O)n(CCC(=O)NCc2ccc3c(c2)OCO3)c(=O)c2ccccc21 54.7%
CCOc1ccccc1C(=O)Nc1nc2c(s1)CC(C)CC2 (stereo not given) 2.97%
Cc1ccc(N2C(=O)[C@@H]3CSC(c4ccc(F)cc4)N3C2=O)cc1 (stereo not given in full) -1.23%
Cc1ccccc1NC(=O)Cn1c(=O)n(CC2CCC(C(=O)NCCc3ccccc3)CC2)c(=O)c2ccccc21 (stereo not given) 4.44%
COC(=O)Cn1c(=O)c2c(nc3n2CCN3c2ccc(F)cc2)n(C)c1=O 2.32%
O=C(NCc1ccccc1Cl)NCc1noc2ccccc12 -18.9%
COc1cccc(-n2c(SCC(=O)c3ccc(Cl)cc3)nc3c([nH]c4ccccc43)c2=O)c1 4.18%
Cc1nn(C(C)(C)C)c(OC(=O)C(C)(C)C)c1Sc1ccccc1 -2.91%
O=C(Nc1ccc(Cl)c(-c2nc3cc(Cl)ccc3o2)c1)c1cc([N+](=O)[O-])ccc1N1CCOCC1 -4.24%
COc1cc(NC(=O)COCc2cc(-c3ccc(F)cc3)on2)cc(OC)c1OC -7.22%
Cc1ccc(C(=O)Nc2cc3c(cc2N2CCCC2)n(C)c(=O)c(=O)n3C)cc1 6.74%
CC(C)(C)NC(=O)[C@H]1CC[C@H]2[C@@H]3CC[C@H]4NC(=O)C=C[C@]4(C)[C@H]3CC[C@]12C -9.37%
COc1ccccc1N1CCN(c2nc(-c3ccc(C)cc3)nc3ccccc23)CC1 9.02%
COc1cccc(NC(=O)C2CCCN(S(=O)(=O)c3ccc4[nH]c(=O)ccc4c3)C2)c1 (stereo not given) 20.8%
CCOc1ccc(-c2cc3c(=O)n(CC(=O)NCc4ccc(Cl)cc4)ccn3n2)cc1 3.5%
CC(=O)Nc1ccc(NC(=O)Cn2nc(C(=O)Nc3ccc(C)cc3)ccc2=O)cc1 -13.1%
CCCOc1ccc(Oc2nc(NCC(C)C)nc(N3CCOCC3)n2)nn1 -5.39%
Cc1ccc(-n2c(SCC(=O)O)nc3sc4c(c3c2=O)CCCC4)cc1 -5.15%
COc1ccc(N2CC(NC(=O)c3ccc4c(c3)OCO4)CC2=O)cc1 (stereo not given) -1.69%
CC1CCc2nc3ncn(Cc4ccccc4F)c(=O)c3cc2C1 (stereo not given) 4.28%
CCOc1ccc(NC(=O)c2cnc(N3CCCCC3)c3ccccc23)cc1 -13.9%
CC(C)NC(=O)C1CCC(Cn2c(=O)c3sccc3n(CC(=O)NCc3ccccc3)c2=O)CC1 (stereo not given) 1.54%
COc1ccc(NC(=O)Cn2cnc3c(oc4ccccc43)c2=O)cc1OC 10.8%
CCCOc1c(Cl)cc(C(=O)N(Cc2cccc(OC)c2)C2CCS(=O)(=O)C2)cc1Cl (stereo not given) 3.6%
CC(C)OC(=O)CCCC=CC[C@@H]1[C@H](C=C[C@@H](O)COc2cccc(C(F)(F)F)c2)[C@H](O)C[C@@H]1O -22.3%
CN(c1ccccc1)S(=O)(=O)c1nnc(NC(=O)c2ccccc2)s1 0.993%
O=C(NCc1ccc2c(c1)OCO2)c1ccc2c(c1)N(Cc1ccccc1)C(=O)c1ccccc1S2=O (stereo not given) 81.3%
CCOC(=O)c1c(-c2ccccc2)csc1NC(=O)c1cc(-c2ccc(F)cc2)on1 3.13%
Cc1cc(C(=O)Nc2ccc(C(C)C)cc2)c2c(C)nn(-c3ccccc3)c2n1 -3.35%
Cc1ccsc1CN(C(=O)c1oc2cc(Br)ccc2c1C)C1CCS(=O)(=O)C1 (stereo not given) -23.6%
CCOc1ccc(C(=O)c2c(N)c(-c3nc(-c4ccc5c(c4)OCO5)cs3)c3ccccn23)cc1 4.3%
